{
  "source": "the supplement of paper PMC12217912",
  "parents": {"B1": {"name": "TEV protease; numbered along this chain (parent)", "chain": "MGESLFKGPRDYNPISSSICHLTNESDGHTTSLYGIGFGPFIITNKHLFRRNNGTLVVQSLHGVFKVKDTTTLQQHLVDGRDMIIIRMPKDFPPFPQKLKFREPQREERICLVTTNFQTKSMSSMVSDTSCTFPSGDGIFWKHWIQTKDGQCGSPLVSTRDGFIVGIHSASNFTNTNNYFTSVPKNFMELLTNQEAQQWVSGWRLNADSVLWGGHKVFMVKPEEPFQPVKEATQL"}},
  "note": "The list shows a part of the results. The full chains were built here from the parent and the listed change. Inactive controls read about 0.05.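 Further: Bxb1 expression induced with 0.2% (w/v) L-rhamnose at OD600 near 0.5, cultures sampled hourly, flipped fraction per protease–substrate barcode pair counted by paired-end Illumina sequencing.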",
  "data": [
    {"variants_of": "B1", "test": "raw area under fraction-flipped curve 0-4 h after induction (AUC4h, not background-subtracted), DNA-recorder readout of cleavage of the substrate (dimensionless); higher = more cleavage of the substrate by the protease variant", "conditions": "temperature: 34 °C; time window: 0-4 h after rhamnose induction", "values": [
      {"variant": "MGESLFKGPRDYNPISSSICHLTNESDGHTTSLYGIGFGPFIITNKHLFRRNNGTLVVQSLHGVFKVKDTTTLQQHLVDGRDMIIIRMPKDFPPFPQKLKFREPQREERICLVTTNFQTKSMSSMVSDTSCTFPSGDGIFWKHWIQTKDGQCGSPLVSTRDGFIVGIHSASNTTNTNNYFTSVPKNFMELLTNQEAQQWVSGWRLNADSVLWGGHKVFMVKPEEPFQPVKEATQL", "note": "[F173T]", "area with substrate ENLYGQS": 0.0656, "area with substrate ENLYHQS": 0.0638, "area with substrate ENLYKQS": 0.07, "area with substrate ENLYLQS": 0.0528, "area with substrate ENLYNQS": 0.07, "area with substrate ENLYPQS": 0.0754, "area with substrate ENLYTQS": 0.077, "area with substrate ENLYYQS": 0.0656},
      {"variant": "MGESLFKGPRDYNPISSSICHLTNESDGHTTSLYGIGFGPFIITNKHLFRRNNGTLVVQSLHGVFKVKDTTTLQQHLVDGRDMIIIRMPKDFPPFPQKLKFREPQREERICLVTTNFQTKSMSSMVSDTSCTFPSGDGIFWKHWIQTKDGQCGSPLVSTRDGFIVGIHSASNFINTNNYFTSVPKNFMELLTNQEAQQWVSGWRLNADSVLWGGHKVFMVKPEEPFQPVKEATQL", "note": "[T174I]", "area with substrate ENLYGQS": 0.0639, "area with substrate ENLYHQS": 0.0618, "area with substrate ENLYNQS": 0.062, "area with substrate ENLYRQS": 0.0582, "area with substrate ENLYTQS": 0.0614},
      {"variant": "MGESLFKGPRDYNPISSSICHLTNESDGHTTSLYGIGFGPFIITNKHLFRRNNGTLVVQSLHGVFKVKDTTTLQQHLVDGRDMIIIRMPKDFPPFPQKLKFREPQREERICLVTTNFQTKSMSSMVSDTSCTFPSGDGIFWKHWIQTKDGQCGSPLVSTRDGFIVGIHSASNFTNTGNYFTSVPKNFMELLTNQEAQQWVSGWRLNADSVLWGGHKVFMVKPEEPFQPVKEATQL", "note": "[N177G]", "area with substrate ENLYGQS": 0.0607, "area with substrate ENLYHQS": 0.0605, "area with substrate ENLYIQS": 0.0719, "area with substrate ENLYKQS": 0.0512, "area with substrate ENLYMQS": 0.0596, "area with substrate ENLYPQS": 0.0219, "area with substrate ENLYRQS": 0.0536, "area with substrate ENLYTQS": 0.0576, "area with substrate ENLYWQS": 0.0574},
      {"variant": "MGESLFKGPRDYNPISSSICHLTNESDGHTTSLYGIGFGPFIITNKHLFRRNNGTLVVQSLHGVFKVKDTTTLQQHLVDGRDMIIIRMPKDFPPFPQKLKFREPQREERICLVTTNFQTKSMSSMVSDTSCTFPSGDGIFWKHWIQTKDGQCGSPLVSTRDGFIVGIHSASNFTNTNNYFTMVPKNFMELLTNQEAQQWVSGWRLNADSVLWGGHKVFMVKPEEPFQPVKEATQL", "note": "[S182M]", "area with substrate ENLYGQS": 0.0311},
      {"variant": "MGESLFKGPRDYNPISSSICHLTNESDGHTTSLYGIGFGPFIITNKHLFRRNNGTLVVQSLHGVFKVKDTTTLQQHLVDGRDMIIIRMPKDFPPFPQKLKFREPQREERICLVTTNFQTKSMSSMVSDTSCTFPSGDGIFWKHWIQTKDGQCGSPLVSTRDGFIVGIHSASNFTNTNNYFTSVPKNFMELLTKQEAQQWVSGWRLNADSVLWGGHKVFMVKPEEPFQPVKEATQL", "note": "[N193K]", "area with substrate ENLYGQS": 0.0412, "area with substrate ENLYRQS": 0.0727},
      {"variant": "MGESLFKGPRDYNPISSSICHLTNESDGHTTSLYGIGFGPFIITNKHLFRRNNGTLVVQSLHGVFKVKDTTTLQQHLVDGRDMIIIRMPKDFPPFPQKLKFREPQREERICLVTTNFQTKSMSSMVSDTSCTFPSGDGIFWKHWIQTKDGQCGSPLVSTRDGFIVGIHSASNFTNTNNYFTSVPKNFMELLTNWEAQQWVSGWRLNADSVLWGGHKVFMVKPEEPFQPVKEATQL", "note": "[Q194W]", "area with substrate ENLYGQS": 0.0605, "area with substrate ENLYHQS": 0.0678, "area with substrate ENLYNQS": 0.0831, "area with substrate ENLYQQS": 0.0599, "area with substrate ENLYSQS": 0.0776, "area with substrate ENLYVQS": 0.0979},
      {"variant": "MGESLFKGPRDYNPISSSICHLTNESDGHTTSLYGIGFGPFIITNKHLFRRNNGTLVVQSLHGVFKVKDTTTLQQHLVDGRDMIIIRMPKDFPPFPQKLKFREPQREERICLVTTNFQTKSMSSMVSDTSCTFPSGDGIFWKHWIQTKDGQCGSPLVSTRDGFIVGIHSASNFTNTNNYFTSVPKNFMELLTNQHAQQWVSGWRLNADSVLWGGHKVFMVKPEEPFQPVKEATQL", "note": "[E195H]", "area with substrate ENLYGQS": 0.0697, "area with substrate ENLYIQS": 0.118, "area with substrate ENLYKQS": 0.0453, "area with substrate ENLYPQS": 0.0628, "area with substrate ENLYQQS": 0.0596, "area with substrate ENLYRQS": 0.0582, "area with substrate ENLYVQS": 0.135, "area with substrate ENLYWQS": 0.0798, "area with substrate ENLYYQS": 0.0608},
      {"variant": "MGESLFKGPRDYNPISSSICHLTNESDGHTTSLYGIGFGPFIITNKHLFRRNNGTLVVQSLHGVFKVKDTTTLQQHLVDGRDMIIIRMPKDFPPFPQKLKFREPQREERICLVTTNFQTKSMSSMVSDTSCTFPSGDGIFWKHWIQTKDGQCGSPLVSTRDGFIVGIHSASNFTNTNNYFTSVPKNFMELLTNQEAQQWVSGWRLNADSVLNGGHKVFMVKPEEPFQPVKEATQL", "note": "[W212N]", "area with substrate ENLYGQS": 0.0224, "area with substrate ENLYHQS": 0.0592, "area with substrate ENLYKQS": 0.0249, "area with substrate ENLYMQS": 0.0678, "area with substrate ENLYSQS": 0.0634, "area with substrate ENLYYQS": 0.084},
      {"variant": "MGESLFKGPRDYNPISSSICHLTNESDGHTTSLYGIGFGPFIITNKHLFRRNNGTLVVQSLHGVFKVKDTTTLQQHLVDGRDMIIIRMPKDFPPFPQKLKFREPQREERICLVTTNFQTKSMSSMVSDTSCTFPSGDGIFWKHWIQTKDGQCGSPLVSTRDGFIVGIHSASNFTNTNNYFTSVPKNFMELLTNQEAQQWVSGWRLNADSVLWGGHKVFMVKPDEPFQPVKEATQL", "note": "[E223D]", "area with substrate ENLYGQS": 0.0636},
      {"variant": "MFESLFKGPRDYNPISSSICHLTNESDGHTTSLYGIGFGPFIITNKHLFRRNNGTLVVQSLHGVFKVKDTTTLQQHLVDGRDMIIIRMPKDFPPFPQKLKFREPQREERICLVTTNFQTKSMSSMVSDTSCTFPSGDGIFWKHWIQTKDGQCGSPLVSTRDGFIVGIHSASNFTNTNNYFTSVPKNFMELLTNQEAQQWVSGWRLNADSVLWGGHKVFMVKPEEPFQPVKEATQL", "note": "[G2F]", "area with substrate ENLYHQS": 0.0839, "area with substrate ENLYIQS": 0.191, "area with substrate ENLYMQS": 0.122, "area with substrate ENLYNQS": 0.0393, "area with substrate ENLYQQS": 0.0713, "area with substrate ENLYTQS": 0.101, "area with substrate ENLYVQS": 0.0657, "area with substrate ENLYWQS": 0.139},
      {"variant": "MTESLFKGPRDYNPISSSICHLTNESDGHTTSLYGIGFGPFIITNKHLFRRNNGTLVVQSLHGVFKVKDTTTLQQHLVDGRDMIIIRMPKDFPPFPQKLKFREPQREERICLVTTNFQTKSMSSMVSDTSCTFPSGDGIFWKHWIQTKDGQCGSPLVSTRDGFIVGIHSASNFTNTNNYFTSVPKNFMELLTNQEAQQWVSGWRLNADSVLWGGHKVFMVKPEEPFQPVKEATQL", "note": "[G2T]", "area with substrate ENLYHQS": 0.0753, "area with substrate ENLYKQS": 0.0604, "area with substrate ENLYSQS": 0.0884, "area with substrate ENLYVQS": 0.065}
    ]}
  ]
}
